Our source for the Ki values is US8592383B2, “Cycloalkyl-fused tetrahydroquinolines as CRTH2 receptor modulators” (Merck Sharp & Dohme Corp., priority 2011, dated 2013).

SMILES strings stand for the structures.

A word on the Ki: it is a measure of affinity in units of concentration, obtained from inhibition or displacement.

This experiment deals with T1, hCRTH2 (Homo sapiens, UniProt Q9Y5Y4).
T1 sequence (Q9Y5Y4 1-395): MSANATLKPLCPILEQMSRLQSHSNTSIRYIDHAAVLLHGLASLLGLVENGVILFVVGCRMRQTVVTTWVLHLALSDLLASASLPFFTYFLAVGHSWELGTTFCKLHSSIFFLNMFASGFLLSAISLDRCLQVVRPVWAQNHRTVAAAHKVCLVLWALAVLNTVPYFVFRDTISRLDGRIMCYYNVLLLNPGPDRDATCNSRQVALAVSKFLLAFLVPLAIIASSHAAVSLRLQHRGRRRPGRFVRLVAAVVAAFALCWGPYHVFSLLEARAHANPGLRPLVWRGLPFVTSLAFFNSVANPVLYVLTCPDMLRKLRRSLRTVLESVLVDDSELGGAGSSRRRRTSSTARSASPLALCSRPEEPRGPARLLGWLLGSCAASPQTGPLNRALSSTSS
The experiment is described as follows: biochemical. Particulars: Ki (nM), Table A; Radioligand Binding Assay A, [3H]PGD2, HEK-hCRTH2 membranes.
For the molecule `O=C(O)CCC(=O)N(C1CC1)C1c2ccccc2N(C(=O)C2CCCCC2)C2CCCC21` (racemic) [17AQ, 4-((cis,cis-4-(cyclohexanecarbonyl)-2,3,3a,4,9,9a-hexahydro-1H-cyclopenta[b]quinolin-9-yl)(cyclopropyl)amino)-4-oxobutanoic acid], the Ki was 20.1 to 200 nM.

The molecule `O=C(O)CCC(=O)N(C1CC1)C1c2ccccc2N(C(=O)c2cccs2)C2CCCC21` (racemic) [17AR, 4-(cyclopropyl(cis,cis-4-(thiophene-2-carbonyl)-2,3,3a,4,9,9a-hexahydro-1H-cyclopenta[b]quinolin-9-yl)amino)-4-oxobutanoic acid] showed a Ki of 5.1 to 20 nM.

`O=C(O)CCC(=O)N(C1CC1)C1c2ccccc2N(C(=O)Cc2ccccc2)C2CCCC21` (racemic) [17AS, 4-(cyclopropyl(cis,cis-4-(2-phenylacetyl)-2,3,3a,4,9,9a-hexahydro-1H-cyclopenta[b]quinolin-9-yl)amino)-4-oxobutanoic acid] registered a Ki of 20.1 to 200 nM.

The molecule `Cc1cccc(C(=O)N2c3ccccc3C(N(C(=O)CCC(=O)O)C3CC3)C3CCCC32)c1` (racemic) [17AT, 4-(cyclopropyl(cis,cis-4-(3-methylbenzoyl)-2,3,3a,4,9,9a-hexahydro-1H-cyclopenta[b]quinolin-9-yl)amino)-4-oxobutanoic acid] registered a Ki of 5.1 to 20 nM.

`Cc1ccc(C(=O)N2c3ccccc3C(N(C(=O)CCC(=O)O)C3CC3)C3CCCC32)cc1` (racemic) [17AU, 4-(cyclopropyl(cis,cis-4-(4-methylbenzoyl)-2,3,3a,4,9,9a-hexahydro-1H-cyclopenta[b]quinolin-9-yl)amino)-4-oxobutanoic acid]: the Ki lay in the range of 5.1 to 20 nM.

On to `O=C(O)CCC(=O)N(C1CC1)C1c2ccccc2N(C(=O)c2ccccc2F)C2CCCC21` (racemic) [17AV, 4-(cyclopropyl(cis,cis-4-(2-fluorobenzoyl)-2,3,3a,4,9,9a-hexahydro-1H-cyclopenta[b]quinolin-9-yl)amino)-4-oxobutanoic acid], for which the Ki fell in the range of 5.1 to 20 nM.

In the case of `O=C(O)CCC(=O)N(C1CC1)C1c2ccccc2N(C(=O)c2cccc(F)c2)C2CCCC21` (racemic) [17AW, 4-(cyclopropyl(cis,cis-4-(3-fluorobenzoyl)-2,3,3a,4,9,9a-hexahydro-1H-cyclopenta[b]quinolin-9-yl)amino)-4-oxobutanoic acid], the Ki is 5.1 to 20 nM.

The molecule `O=C(O)CCC(=O)N(C1CC1)C1c2ccccc2N(C(=O)c2ccc(F)cc2)C2CCCC21` (racemic) [17AX, 4-(cyclopropyl(cis,cis-4-(4-fluorobenzoyl)-2,3,3a,4,9,9a-hexahydro-1H-cyclopenta[b]quinolin-9-yl)amino)-4-oxobutanoic acid] came in with a Ki of 5.1 to 20 nM.

`Cc1noc(C)c1C(=O)N1c2ccccc2C(N(C(=O)CCC(=O)O)C2CC2)C2CCCC21` (racemic) [17AY, 4-(cyclopropyl(cis,cis-4-(3,5-dimethylisoxazole-4-carbonyl)-2,3,3a,4,9,9a-hexahydro-1H-cyclopenta[b]quinolin-9-yl)amino)-4-oxobutanoic acid] returned a Ki of 20.1 to 200 nM.

Turning to `O=C(O)CCC(=O)N(C1CC1)C1c2ccccc2N(C(=O)Cc2cccs2)C2CCCC21` (racemic) [17AZ, 4-(cyclopropyl(cis,cis-4-(2-(thiophen-2-yl)acetyl)-2,3,3a,4,9,9a-hexahydro-1H-cyclopenta[b]quinolin-9-yl)amino)-4-oxobutanoic acid], the Ki lay in the range of 20.1 to 200 nM.

For `O=C(O)CCC(=O)N(C1CC1)C1c2ccccc2N(C(=O)c2cccc(OC(F)(F)F)c2)C2CCCC21` (racemic) [17Ai, 4-[cyclopropyl[cis,cis-2,3,3a,4,9,9a-hexahydro-4-[3-(trifluoromethoxy)benzoyl]-1H-cyclopenta[b]quinolin-9-yl]amino]-4-oxobutanoic acid], the Ki is 5.1 to 20 nM.

`O=C(O)CCC(=O)N(C1CC1)C1c2ccccc2N(C(=O)c2ccccc2OC(F)(F)F)C2CCCC21` (racemic) [17Ao, 4-[cyclopropyl[cis,cis-2,3,3a,4,9,9a-hexahydro-4-[2-(trifluoromethoxy)benzoyl]-1H-cyclopenta[b]quinolin-9-yl]amino]-4-oxobutanoic acid]: the Ki was in the range of 20.1 to 200 nM.

`O=C(O)CCC(=O)N(C1CC1)C1c2ccccc2N(C(=O)CCc2ccccc2)C2CCCC21` (racemic) [17BA, 4-(cyclopropyl(cis,cis-4-(3-phenylpropanoyl)-2,3,3a,4,9,9a-hexahydro-1H-cyclopenta[b]quinolin-9-yl)amino)-4-oxobutanoic acid] came in with a Ki of 20.1 to 200 nM.

`O=C(O)CCC(=O)N(C1CC1)C1c2ccccc2N(C(=O)COc2ccccc2)C2CCCC21` (racemic) [17BB, 4-(cyclopropyl(cis,cis-4-(2-phenoxyacetyl)-2,3,3a,4,9,9a-hexahydro-1H-cyclopenta[b]quinolin-9-yl)amino)-4-oxobutanoic acid] displayed a Ki of 20.1 to 200 nM.

For `O=C(O)CCC(=O)N(C1CC1)C1c2ccccc2N(C(=O)c2ccc(F)cc2F)C2CCCC21` (racemic) [17BC, 4-(cyclopropyl(cis,cis-4-(2,4-difluorobenzoyl)-2,3,3a,4,9,9a-hexahydro-1H-cyclopenta[b]quinolin-9-yl)amino)-4-oxobutanoic acid], the inhibition constant Ki lay in the range of 20.1 to 200 nM.

`O=C(O)CCC(=O)N(C1CC1)C1c2ccccc2N(C(=O)c2cc(F)cc(F)c2)C2CCCC21` (racemic) [17BD, 4-(cyclopropyl((cis,cis-4-(3,5-difluorobenzoyl)-2,3,3a,4,9,9a-hexahydro-1H-cyclopenta[b]quinolin-9-yl)amino)-4-oxobutanoic acid] showed a Ki of 20.1 to 200 nM.

Molecule `O=C(O)CCC(=O)N(C1CC1)C1c2ccccc2N(C(=O)C2CC2c2ccccc2)C2CCCC21` (racemic) [17BE, 4-(cyclopropyl(cis,cis-4- trans-2-phenylcyclopropanecarbonyl)-2,3,3a,4,9,9a-hexahydro-1H-cyclopenta[b]quinolin-9-yl)amino)-4-oxobutanoic acid] returned a Ki of 5.1 to 20 nM.

In the case of `COc1ccc(CC(=O)N2c3ccccc3C(N(C(=O)CCC(=O)O)C3CC3)C3CCCC32)cc1` (racemic) [17BF, 4-(cyclopropyl(cis,cis-4-(2-(4-methoxyphenyl)acetyl)-2,3,3a,4,9,9a-hexahydro-1H-cyclopenta[b]quinolin-9-yl)amino)-4-oxobutanoic acid], the Ki lay in the range of 20.1 to 200 nM.

Turning to `O=C(O)CCC(=O)N(C1CC1)C1c2ccccc2N(C(=O)c2cccc3ccccc23)C2CCCC21` (racemic) [17BG, 4-((cis,cis-4-(1-naphthoyl)-2,3,3a,4,9,9a-hexahydro-1H-cyclopenta[b]quinolin-9-yl)(cyclopropyl)amino)-4-oxobutanoic acid], the Ki lay in the range of 5.1 to 20 nM.

Take `O=C(O)CCC(=O)N(C1CC1)C1c2ccccc2N(C(=O)c2ccc(Cl)cc2Cl)C2CCCC21` (racemic) [17BH, 4-(cyclopropyl(cis,cis-4-(2,4-dichlorobenzoyl)-2,3,3a,4,9,9a-hexahydro-1H-cyclopenta[b]quinolin-9-yl)amino)-4-oxobutanoic acid]: the Ki is 5.1 to 20 nM.

On to `COc1ccc(CC(=O)N2c3ccccc3C(N(C(=O)CCC(=O)O)C3CC3)C3CCCC32)cc1OC` (racemic) [17BJ, 4-(cyclopropyl(cis,cis-4-(2-(3,4-dimethoxyphenyl)acetyl)-2,3,3a,4,9,9a-hexahydro-1H-cyclopenta[b]quinolin-9-yl)amino)-4-oxobutanoic acid], for which the Ki was 20.1 to 200 nM.

Regarding `O=C(O)CCC(=O)N(C1CC1)C1c2ccccc2N(C(=O)c2ccc3c(c2)OCO3)C2CCCC21` (racemic) [17BK, 4-(((cis,cis)-4-(benzo[d][1,3]dioxole-5-carbonyl)-2,3,3a,4,9,9a-hexahydro-1H-cyclopenta[b]quinolin-9-yl)(cyclopropyl)amino)-4-oxobutanoic acid], the Ki lay in the range of 5.1 to 20 nM.

Take `O=C(O)CCC(=O)N(C1CC1)C1c2ccccc2N(C(=O)c2ccco2)C2CCCC21` (racemic) [17BL, 4-(cyclopropyl(cis,cis-4-(furan-2-carbonyl)-2,3,3a,4,9,9a-hexahydro-1H-cyclopenta[b]quinolin-9-yl)amino)-4-oxobutanoic acid]: the Ki lay within 20.1 to 200 nM.

Take `O=C(O)CCC(=O)N(C1CC1)C1c2ccccc2N(C(=O)C2CC2c2ccccc2)C2CCCC21` (racemic) [17BM, 4-[cyclopropyl[cis,cis-2,3,3a,4,9,9a-hexahydro-4-[(trans-2-phenylcyclopropyl)carbonyl]-1H-cyclopenta[b]quinolin-9-yl]amino]-4-oxobutanoic acid]: the Ki was in the range of 1 to 5 nM.

As for `O=C(O)CCC(=O)N(C1CC1)C1c2ccccc2N(C(=O)c2ccc3ccccc3c2)C2CCCC21` (racemic) [17Bi, 4-((cis,cis-4-(2-naphthoyl)-2,3,3a,4,9,9a-hexahydro-1H-cyclopenta[b]quinolin-9-yl)(cyclopropyl)amino)-4-oxobutanoic acid], the inhibitory constant (Ki) was 5.1 to 20 nM.

In turn, `C=CCN(C(=O)CCC(=O)O)C1c2ccccc2N(C(=O)c2ccc(OC(F)(F)F)cc2)C2CCCC12` (racemic) [17CB, 4-[[cis,cis-2,3,3a,4,9,9a-hexahydro-4-[4-(trifluoromethoxy)benzoyl]-1H-cyclopenta[b]quinolin-9-yl](2-propenyl)amino]-4-oxobutanoic acid] showed a Ki of 5.1 to 20 nM.

As for `O=C(O)CCC(=O)N(C1CCC1)[C@@H]1c2ccc(Cl)cc2N(C(=O)c2ccc(OC(F)(F)F)cc2)[C@@H]2CCC[C@@H]21` (racemic) [17CH, 4-[[cis,cis-6-chloro-2,3,3a,4,9,9a-hexahydro-4-[4-(trifluoromethoxy)benzoyl]-1H-cyclopenta[b]quinolin-9-yl]cyclobutylamino]-4-oxobutanoic acid], the Ki is 5.1 to 20 nM.
